Measurements: article PMC3916391 (PLoS Pathogens, 2014)

Target: T1, putidacin L1 (Pseudomonas putida, UniProt Q8GEJ9)
T1 construct: gene llpA
Assay: biochemical

## C[C@H]1OC(O)[C@@H](O)[C@@H](O)[C@@H]1O (stereo partly drawn) [D-rhamnose]
  Kd: 5 to 10 mM
